Measured values: PubChem BioAssay AID624173 (National Center for Advancing Translational Sciences (NCATS), 2012)
The campaign covered roughly 410,000 compounds. About 490 (0.12%) were called active. The inconclusive results got no clear call from the source; some entries with a clear call stand among them for comparison. Calls come from the whole dose curve; as a rule, active = well fitted inhibition curve with a large enough effect; inconclusive = small, poorly fitted or top-dose-only effect; inactive = flat fitted curve, though single readings scatter. Potencies of inconclusive entries are doubtful fits and often do not repeat.

molecular target: pyruvate kinase (Trypanosoma brucei) (UniProt Q57TT1); experiment: qHTS of Trypanosoma Brucei Inhibitors; details: TbPYK enzyme, Kinase-Glo Plus ATP luminescence, 45 min; series mostly up to 76.8 µM; note: nearly all actives have a fitted effect of over 50% in size
In short: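 Screened from lowest to highest concentration, compounds were pinned into TbPYK/substrate mixtures, and ADP (130 uM final) was added. Plates sat at room temperature for 45 min prior to Kinase-Glo Plus detection by luminescence.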
% is set by controls: 0 for no effect and ±100 for the full control effect; potency is the fitted concentration of half-maximal effect; tags give direction and shape of the fitted curve.

Row | Structure (SMILES) | Potency | activity, negative = inhibition
1 | CC(=O)c1ccc(S(=O)(=O)Nc2c(C)nn(C)c2C)cc1 | inactive | 
2 | CC(C)CSc1nc2c(c(=O)[nH]c(=O)n2C)n1CC(O)COc1cccc2ccccc12 (configuration not stated) | inconclusive: 25.1 µM [inhibitor, partial curve] | 
3 | O=C(O)c1cc(O)c(O)c(O)c1 | inconclusive: 12.6 µM [inhibitor, partial curve] | 
4 | COc1cccc(NS(=O)(=O)c2c(C)cc(C)cc2C)c1 | inconclusive: 50.1 µM [inhibitor, single point] | 
5 | CCCOc1ccc(CNC(=O)c2ccc(C)c(-n3c(C)nc4cccnc43)c2)cc1 |  | inactive: -0.783% [at 15.4 µM]
6 | Nn1c(COc2ccc(Cl)cc2)n[nH]c1=S | inconclusive: 5.01 µM [inhibitor, partial curve] | 
7 | C/C(N)=C(/C#N)C(=O)CSc1nnc(NC(C)C)s1 | inactive | 
8 | COc1ccc(CNc2ccccc2SC)cc1OC | inconclusive: 35.5 µM [inhibitor, single point] | 
9 | CSc1ccc(Cn2nnc(C(=O)Nc3ccc(C)cc3Cl)c2N)cc1 | inactive | 
10 | Cn1c(SCC(=O)Nc2ccc3c(c2)OCCO3)nnc1C(F)(F)F | inactive | 
11 | COC(=O)[C@H](CCSC)NC(=O)c1cc2c(cn1)[nH]c1ccccc12 | inconclusive: 28.2 µM [inhibitor, partial curve, poor fit] | 
12 | CC1Cc2ccccc2N1C(=O)CCS(=O)(=O)c1ccc2c(c1)NC(=O)CS2 (configuration not stated) | inconclusive: 50.1 µM [inhibitor, single point] | 
13 | Cc1n[nH]c(=O)c2c(NC(=O)CSc3c(Cl)cccc3Cl)oc(C)c12 | inconclusive: 31.6 µM [inhibitor, single point] | 
14 | Cc1ccc(/C=N/n2c(-c3ccco3)n[nH]c2=S)s1 | inconclusive: 11.2 µM [inhibitor, partial curve, poor fit] | 
15 | Cc1ccc(-c2cn3c(=S)[nH]nc3s2)cc1 | inconclusive: 2.82 µM [inhibitor, full curve, poor fit] | 
16 | Cc1ccc(/C=N/N2CCN(Cc3ccccc3)CC2)cc1 | inactive | 
17 | CCN(CC)C(=O)c1ccc(NC(=O)Nc2ccccc2F)cc1 | inconclusive: 22.4 µM [inhibitor, partial curve] | 
18 | O=C1OCC(CO)(CO)N=C1NNc1ccc(Cl)c(Cl)c1 | inconclusive: 50.1 µM [inhibitor, single point] | 
19 | c1ccc(Cn2c(SCc3nc4ccccc4s3)nnc2-c2ccco2)cc1 | active: 28.2 µM | 
20 | CC1(Oc2cccc(F)c2)CCN(Cc2csc3ccccc23)C1 (configuration not stated) | inactive | 
21 | Cc1cccc(NC(=O)c2onc3c2CCCC3)n1 | inconclusive: 39.8 µM [inhibitor, partial curve, poor fit] | 
22 | O=C(OCC12CC3CC(CC(C3)C1)C2)c1ccc(NCc2cc(O)ccc2O)cc1 | inconclusive: 39.8 µM [inhibitor, single point] | 
23 | COC(=O)C1=C(C)N(Cc2ccco2)C(=O)/C1=C\c1ccc([N+](=O)[O-])cc1 | inconclusive: 35.5 µM [inhibitor, single point] | 
24 | Cn1c(-c2sc3cc(C(F)(F)F)cnc3c2-c2ccccc2)n[nH]c1=S | inconclusive: 6.31 µM [inhibitor, partial curve] | 

Row | Structure (SMILES) | Potency | activity, negative = inhibition
25 | CCOC(=O)C1CCN(C(=S)Nc2ccc(S(N)(=O)=O)cc2)CC1 | inconclusive: 15.8 µM [inhibitor, partial curve] | 
26 | CCOC(=O)c1sc(N/N=C/c2ccccc2)nc1C | inconclusive: 15.8 µM [inhibitor, partial curve, poor fit] | 
27 | Cc1nc(N2CCN(c3ccccc3)CC2)nc2c1C(=O)CCC2 | inactive | 
28 | COc1ccc(-n2c(=S)[nH]c3cc(C(=O)NCCCN4CCCC4=O)ccc3c2=O)cc1OC | inconclusive: 22.4 µM [inhibitor, single point] | 
29 | COc1cccc(NC(=O)c2cnn(-c3ccccc3)c2-n2cccc2)c1 | inactive | 
30 | S=c1[nH]nc(-c2cc3c(s2)-c2ccccc2CC3)o1 | inactive | 
31 | CCOc1cc2c(cc1OCC)C(c1ccc(C(=O)O)cc1)NCC2 (configuration not stated) | inactive | 
32 | S=c1[nH]nc(-c2cc(-c3ccccc3)n[nH]2)n1/N=C/C=C/c1ccco1 | inconclusive: 1.12 µM [inhibitor, full curve, poor fit] | 
33 | CCn1c(C(=O)NCc2cccnc2)cc2sc(Cl)cc21 | inconclusive: 28.2 µM [inhibitor, partial curve] | 
34 | Oc1ccc(C23CC4CC(CC(C4)C2)C3)cc1O | inconclusive: 31.6 µM [inhibitor, partial curve] | 
35 | O=c1ccc(-c2n[nH]c(=S)n2-c2ccc(F)c(Cl)c2)n[nH]1 | inconclusive: 14.1 µM [inhibitor, partial curve, poor fit] | 
36 | CCN(CC)S(=O)(=O)c1cccc(-c2n[nH]c(=S)n2/N=C/c2ccc(C(=O)OC)cc2)c1 | inconclusive: 12.6 µM [inhibitor, partial curve, poor fit] | 
37 | COc1ccc(CCCc2n[nH]c(=S)o2)cc1 | inconclusive: 35.5 µM [inhibitor, partial curve, poor fit] | 
38 | COc1ccc(CCNC(=O)c2c(C)oc3ncn(CC(C)C)c(=O)c23)cc1OC | inactive | 
39 | CC(=O)NCc1cn2c(C)csc2n1 | inactive | 
40 | O=S(=O)(c1ccccc1)N1CCN(c2nnnn2-c2ccccc2)CC1 | inactive | 
41 | COc1ccc(-c2n[nH]c(=S)n2-c2ccc(Br)cc2)cc1OC | active: 3.98 µM | 
42 | COc1cc(C2C3=C(COC3=O)OC(C)(C)Oc3cc4c(cc32)OCO4)cc(OC)c1OC (configuration not stated) | inactive | 
43 | Cc1cc(C)n2nc(SCC(=O)NC(=O)NCc3ccco3)nc2n1 | inconclusive: 50.1 µM [inhibitor, single point] | 
44 | COc1ccc(-n2cc(-c3ccc(OC)c(OC)c3)[nH]c2=S)cc1 | inconclusive: 1.26 µM [inhibitor, full curve, poor fit] | 
45 | COc1ccc(C2C(C#N)=C(N)Oc3cc(C)n(Cc4ccco4)c(=O)c32)cc1 (configuration not stated) | inconclusive: 31.6 µM [inhibitor, single point] | 
46 | O=C(Cn1nnc(-c2cccs2)n1)NCc1ccco1 | inactive | 
47 | Oc1ccc(/C=N/n2c(-c3ccccc3)n[nH]c2=S)cc1 | inconclusive: 3.98 µM [inhibitor, full curve, poor fit] | 
48 | COc1ccc(C(=O)Nc2ccccc2C(=O)N/N=C/c2ccco2)cc1 | inconclusive: 44.7 µM [inhibitor, partial curve, poor fit] | 

Row | Structure (SMILES) | Potency | activity, negative = inhibition
49 | O=C(Cn1c(=O)oc2cc(S(=O)(=O)N3CCCC3)ccc21)NC1CCCc2ccccc21 (configuration not stated) | inactive | 
50 | COc1cc(C(=S)NCc2ccccc2)cc(Br)c1O | inconclusive: 12.6 µM [inhibitor, partial curve, poor fit] | 
51 | CN(C)c1ccc(/C=N/n2c(C3CCCCC3)n[nH]c2=S)cc1 | inconclusive: 20 µM [inhibitor, partial curve, poor fit] | 
52 | S=c1[nH]ncn1NCc1ccc(Cl)cc1Cl | inconclusive: 20 µM [inhibitor, partial curve, poor fit] | 
53 | C/C(=N\NS(=O)(=O)c1ccc(C(C)(C)C)cc1)c1ccccc1 | inactive | 
54 | c1ccc2sc(-c3ccc4c(c3)OCO4)nc2c1 | inconclusive: 31.6 µM [inhibitor, partial curve] | 
55 | CN=c1scc(-c2cccs2)n1/N=C/c1ccc(O)c(O)c1O | inconclusive: 35.5 µM [inhibitor, partial curve, poor fit] | 
56 | N#Cc1cc2c(nc1SCC(=O)N1CCCCC1)CCCCC2 | inconclusive: 22.4 µM [inhibitor, partial curve, poor fit] | 
57 | COc1ccc(-n2c(=S)[nH]c3ccccc32)cc1 | inconclusive: 2.82 µM [inhibitor, full curve, poor fit] | 
58 | O=S(=O)(c1ccc(=S)[nH]c1)N1CCOCC1 | active: 7.94 µM | 
59 | O=C(CCCOc1ccccc1)Nc1nc2ccccc2[nH]1 | inactive | 
60 | COc1ccc(N2CC(NC(=O)Cc3cccs3)CC2=O)cc1OC (configuration not stated) | inactive | 
61 | CCCc1ccc(C(O)c2ncc(-c3ccccc3F)[nH]2)cc1 (configuration not stated) | inactive | 
62 | COc1cccc(NC(=O)Nc2ccc3c(c2)nc(C)n3C)c1 | inactive | 
63 | N#Cc1nc(-c2ccco2)oc1NCCCN1CCOCC1 | inconclusive: 50.1 µM [inhibitor, single point] | 
64 | COc1ccc(/C=C(\NC(=O)c2ccc(OC)cc2)C(=O)Nc2ccc(C(=O)O)cc2)cc1 | inactive | 
65 | O=C(NC(=S)N1CCN(C/C=C/c2ccccc2)CC1)c1cccnc1 | inconclusive: 35.5 µM [inhibitor, partial curve] | 
66 | Cc1ccc(C)c(NC(=O)CCc2ccc(S(=O)(=O)NC3CCCCC3)cc2)c1 | inconclusive: 31.6 µM [inhibitor, single point] | 
67 | Cc1c(Nc2scc(-c3ccccc3)[n+]2-c2ccccc2)c(=O)n(-c2ccccc2)n1C | inconclusive: 35.5 µM [inhibitor, single point] | 
68 | CN(C)C(=O)N=NC(=O)N(C)C | inconclusive: 6.31 µM [inhibitor, partial curve] | 
69 | O=S(=O)(O)c1cc(Cl)cc(N=Nc2ccc(O)cc2O)c1O | inconclusive: 35.5 µM [inhibitor, single point] | 
70 | Nc1ccccc1-c1n[nH]c(=S)s1 | inconclusive: 11.2 µM [inhibitor, partial curve] | 
71 | Cc1cccc(NC2=C(NC(=O)c3ccccc3)C(=O)c3ccccc3C2=O)c1 | active: 15.8 µM | 
72 | COc1ccc(CCNC(=O)/C=C/c2ccco2)cc1 | inconclusive: 28.2 µM [inhibitor, partial curve] | 
